According to the supplement of paper PMC10126150:
Sequences with one replicate were seen in a single cluster, so their values are uncertain.

System: ATP
Assay: switch fluorescence ratio, 500 uM ATP over buffer (Cy3 cluster intensity, sum of 5 cycles each) (fold (ratio)); higher = stronger signal-on switching upon ATP binding; sequences stand for … in TCGTCGGCAGCGTCAGATGTGTATAAGAGACAGTTTTTTTTTTTTTTTTTTTTTTTTT…TC
Settings: aptamer strand: ATP DNA aptamer (quencher-CACCTGGGGGAGTATTGCGGAGGAAGG + anchor), 100 nM annealed; ATP concentration: 500 uM; one replicate
Procedure, shortened: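 Switching-strand clusters labelled with Cy3 on a modified Illumina MiSeq flow-cell were annealed to 100 nM quencher-labelled ATP aptamer, imaged in selection buffer, and re-imaged after 15 min with 500 uM ATP at 22 °C. This was done over five cycles with NaOH stripping and re-annealing in between. The fluorescence ratio is summed target-cycle over summed buffer-cycle Cy3 intensity per cluster, averaged per switch-domain sequence, excluding clusters outside 100-1000 RFU.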
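Note: ATP exposure 15 min at 22 °C before imaging.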

Sequence	switch fluorescence ratio
AGCAGAGCTC	1.02
AATCCAAAGT	0.996
TACAACCTGG	1.04
TAATAGGCAT	0.99
CCCCGCTTCA	3.29
AAAGGTCTCT	0.981
CCAGCTGGGA	1.03
GAACCGGACT	2.12
GGGATGTTTC	1.04
TATCAGTTAG	0.986
CATTCCTGAT	1.01
GTGGTGGCT	1.03
ACGCTCTATT	1.02
TCGGCAGCAT	2.12
CCATGCAGTT	1.05
GCCCCCCGGA	1.23
CTGTCTTTT	0.957
ATACTAGCGC	0.993
AAAGCGTCAT	0.955
TGTCGGCGGG	0.963
CGAGGATGGC	1.01
AAAGCGGGTG	1.09
TCGCAGCCAA	5.47
TTTACATGTC	1.01
TCTCTTTGGA	0.991
ACGCGAGACG	1.22

Sequence	switch fluorescence ratio
GCACTTTTGG	1.01
ATCCCTTTCT	1.02
TTATGGCATG	0.953
GGTTTTTAG	0.99
AGTAACTAGG	1.03
TTCTAGATTT	0.982
CGGTAGCCCG	0.915
TCACATCATA	1.03
CACTAGGTAA	1.01
CGTCGCTAAG	1.08
CCCAGGTTTT	2
CGACCCTTC	1.13
ACCTGTGCTG	0.976
AATGAGCGCG	1.01
ATTCCTCAT	1.11
GTCGTCGTTG	0.98
CAAATTGGCG	1.16
TCCTGGCTAC	4.97
TTCGCTGGGA	1
TTCTAAGCCG	1.12
ATGGATGTGA	1.03
CCTGATGGCG	1.02
GGCAGGCCTA	1.06
ATCGGAACGA	1.01
ATGGGCTCTG	1.05
GGTCAAAACG	1.03

Sequence	switch fluorescence ratio
ATACATGCGT	1
GGGGCTCTGC	0.964
AGTTGTTATG	1.02
GAGAGGACTT	0.95
GTAGAGAATG	0.955
TGTACACTTT	1.02
GAGATTTTGC	1.01
CACCGGTTTT	1.02
AGTCAGCCTT	1.07
CAAACAACCG	1.04
CCTTTCGAAT	1.18
CTGGTGTATA	1.06
CCAGGGTGCG	1.21
GGAAAGATTA	0.993
TTTTCGATCA	0.978
GGTCGGGTGA	0.975
GCGACGAGTG	0.978
CGACAGCGGG	0.989
ACCGATGTT	1.03
CTTACTTTGA	0.996
ATGTGACGGA	0.988
TTACTGGATT	1.04
TGATAAGTTG	1.01
GCGTTCCGCT	1.03
CGGTGGC	1.17
ATCACCTACA	1.27

Sequence	switch fluorescence ratio
TCGTTTCACC	0.951
AACGTCCCGA	1.02
ATTAATAATA	1.01
TGTTTGCCTA	0.984
ATCCATTCTA	1.02
TTGTTAGCTT	1.03
AAACCTATAT	0.997
GTGAGCGCG	0.942
GCAACACAAA	0.992
ATCCCCACGT	1.14
CTTGAATTCG	0.94
GCACGAGGTA	1.01
ACTTTAATGC	1.1
CGGACGTTAG	1.14
TAGCCTTGAA	0.961
TATATATTG	1.04
TTTTGTCT	0.982
TTTGCGCGTG	1
TCGTACCCGT	0.982
GCTAGGCGAA	0.999
CTATTCTGCG	0.983
CTTTATAATA	1.09
AAGGGTGTGG	0.954
CATCCTGATT	0.996
AAGGATAGCG	1.08
AACTTCGTGC	0.984

Sequence	switch fluorescence ratio
AGACATCGCT	0.972
TCGCTAGGC	1.8
AACGTAACGG	1.25
TGGTGAGCTG	1.01
TTTCCTTAAG	0.989
TGGGAAGTGC	1.01
GTTGTCGG	0.962
ACTCTCA	1.02
GATCTTCACG	0.968
ATATTGTAT	1.03
TAACGATTCT	1
TTTGGCTGA	0.984
AGCAATGTAA	1.28
CAACTGAGTC	1.08
ATACACAGGC	1.02
CAGGGCAGGA	1.03
TGCTCTCCTT	1.25
TAAGCGCACT	1.03
TTCATTGCG	1.02
GGCACGCCCG	0.998
CTCTAGAACT	1.01
TGTTTCATGT	1.01
CGATGTCGCC	1
AGTGACGGGA	1.05
ATATTCTTCG	1.07
CGGATATATC	0.983

Sequence	switch fluorescence ratio
AGCCTAAGTT	1.03
CTAAGGACTC	0.976
CAGTTACCGC	1.12
TTTCACGTGA	1.02
TTAGTTACTT	1.05
GAAACAAGTC	1.1
TATTAGTAT	0.98
TCAGCTCGGA	1.04
GATGGCTCAT	1.07
CCACGGCTCG	1.02
GCCTTCTAGT	1.06
ACCATTTAC	1.16
AGGAAGGCGA	0.973
GTTGTACTAC	1.01
CTATCCGTTT	1.02
ACCTCAAGCT	1.15
TGCATGCTCT	1
GGAGGAGAA	0.99
CCGGGAGATA	1.1
ATTTCTCCTA	1.03
GTCATATGTA	0.973
TGCAGGTGAC	1.48
TCAATGGAGT	1
TTTACATCGG	1
TGCTGGAA	1.01
TGCACGTAAC	1.69

Sequence	switch fluorescence ratio
TAACGAGAAA	1.07
CACTTCGCCG	1.05
CCATTGCCAA	1.03
TTTATGAAGT	1.19
CAGATATGAC	0.995
GGTCCGCTTG	1.1
TAGTACGGG	0.999
CTAATTAACG	0.975
GTGGCTTATG	0.965
ATGACAAAGA	1.02
ACGAGCAGGG	1.23
CCACGAGAGC	1.07
AAGCTATCTG	0.998
GTAAGAGGGT	0.993
ATATAATTCC	1.04
GTGTTTTGGA	0.934
GCTATAATTT	1.01
GGACGGAGAA	0.998
TCATTTTCCT	1.06
ACTTGCTAGT	0.996
GCCTACTGTA	1.19
AATGAGGTAG	0.93
AGTTCGTCGG	1.01
GTGCATAGTG	0.983
ATTTCATTCT	1
AGCTTTAGAA	0.983

Sequence	switch fluorescence ratio
AACTGAAAAA	1.07
CAGAACGCCC	1.65
AGCCCACAAA	1.03
GCCTAATCTT	1.01
CAGCAGGGGA	1.03
ATTGGAAGCA	0.997
GCGTGCATAG	1.04
ATTTGAGCCT	1.07
TCGGAACTTT	1
TCTTGGCGCA	1.04
TTCGTTCGGA	0.962
CCGTCGTCAA	4.49
TTCTGACTC	1.28
GCGTTTATGA	0.99
AGATACCC	1.04
CCAAAGCATT	6.17
TGCAAACGTA	1.09
ATCAGTAGAG	1.02
TGGTACATGC	1.03
